Reference: US20230340087A1 (published 2023)

Target: Clostridium difficile toxin A (TcdA) (Clostridium difficile)
Assay: cell-based or functional assay

B1: ABAB-IgG1, tetra-specific, octameric binding agent (AH3/5D-IgG1 heavy chain + AA6/E3-IgG1 kappa chain) (other)
heavy: QVQLVETGGGLVQPGGSLRLSCAASGFTLDYSSIGWFRQAPGKEREGVSCISSSGDSTKYADSVKGRFTTSRDNAKNTVYLQMNSLKPDDTAVYYCAAFRATMCGVFPLSPYGKDDWGKGTLVTVSSGGGGSGGGGSGGGGSQVQLVESGGGLVQPGGSLRLSCEASGFTLDYYGIGWFRQPPGKEREAVSYISASARTILYADSVKGRFTISRDNAKNAVYLQMNSLKREDTAVYYCARRRFSASSVNRWLADDYDVWGRGTQVAVSSASTKGPSVFPLAPSSKSTSGGTAALGCLVKDYFPEPVTVSWNSGALTSGVHTFPAVLQSSGLYSLSSVVTVPSSSLGTQTYICNVNHKPSNTKVDKRV[in this place human IgG1 Fc]
light: QLQLVETGGGLVQPGGSLRLSCAASGFTFSDYVMTWVRQAPGKGPEWIATINTDGSTMRDDSTKGRFTISRDNAKNTLYLQMTSLKPEDTALYYCARGRVISASAIRGAVRGPGTQVTVSSGGGGSGGGGSGGGGSQVQLVESGGGLVQTGGSLRLSCASSGSIAGFETVTWSRQAPGKSLQWVASMTKTNNEIYSDSVKGRFIISRDNAKNTVYLQMNSLKPEDTGVYFCKGPELRGQGIQVTVSSRTVAAPSVFIFPPSDEQLKSGTASVVCLLNNFYPREAKVQWKVDNALQSGNSQESVTEQDSKDSTYSLSSTLTLSKADYEKHKVYACEVTHQGLSSPVTKSFNRGEC
neutralizing activity against cytopathic effect of TcdA (100 ng/ml) on Vero cells, fold over Merck anti-TcdA antibody: ≥ 1000 fold
